According to publication PMC4336329 (PLoS ONE, 2015):
The whole screen tested about 310,000 compounds, of which about 14,000 (4.5%) showed an effect of 50% or more. Effects have a minus sign here. Some of the results follow.

Biological target: human ether-à-go-go-related gene (hERG) potassium channel (human, UniProt Q12809)
Experiment: primary screen, population patch clamp on CHO cells stably expressing hERG
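Further: peak tail current of the secondary pulse compared with the same well before compound.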

Sequence of human ether-à-go-go-related gene (hERG) potassium channel (Q12809 whole entry, looked up): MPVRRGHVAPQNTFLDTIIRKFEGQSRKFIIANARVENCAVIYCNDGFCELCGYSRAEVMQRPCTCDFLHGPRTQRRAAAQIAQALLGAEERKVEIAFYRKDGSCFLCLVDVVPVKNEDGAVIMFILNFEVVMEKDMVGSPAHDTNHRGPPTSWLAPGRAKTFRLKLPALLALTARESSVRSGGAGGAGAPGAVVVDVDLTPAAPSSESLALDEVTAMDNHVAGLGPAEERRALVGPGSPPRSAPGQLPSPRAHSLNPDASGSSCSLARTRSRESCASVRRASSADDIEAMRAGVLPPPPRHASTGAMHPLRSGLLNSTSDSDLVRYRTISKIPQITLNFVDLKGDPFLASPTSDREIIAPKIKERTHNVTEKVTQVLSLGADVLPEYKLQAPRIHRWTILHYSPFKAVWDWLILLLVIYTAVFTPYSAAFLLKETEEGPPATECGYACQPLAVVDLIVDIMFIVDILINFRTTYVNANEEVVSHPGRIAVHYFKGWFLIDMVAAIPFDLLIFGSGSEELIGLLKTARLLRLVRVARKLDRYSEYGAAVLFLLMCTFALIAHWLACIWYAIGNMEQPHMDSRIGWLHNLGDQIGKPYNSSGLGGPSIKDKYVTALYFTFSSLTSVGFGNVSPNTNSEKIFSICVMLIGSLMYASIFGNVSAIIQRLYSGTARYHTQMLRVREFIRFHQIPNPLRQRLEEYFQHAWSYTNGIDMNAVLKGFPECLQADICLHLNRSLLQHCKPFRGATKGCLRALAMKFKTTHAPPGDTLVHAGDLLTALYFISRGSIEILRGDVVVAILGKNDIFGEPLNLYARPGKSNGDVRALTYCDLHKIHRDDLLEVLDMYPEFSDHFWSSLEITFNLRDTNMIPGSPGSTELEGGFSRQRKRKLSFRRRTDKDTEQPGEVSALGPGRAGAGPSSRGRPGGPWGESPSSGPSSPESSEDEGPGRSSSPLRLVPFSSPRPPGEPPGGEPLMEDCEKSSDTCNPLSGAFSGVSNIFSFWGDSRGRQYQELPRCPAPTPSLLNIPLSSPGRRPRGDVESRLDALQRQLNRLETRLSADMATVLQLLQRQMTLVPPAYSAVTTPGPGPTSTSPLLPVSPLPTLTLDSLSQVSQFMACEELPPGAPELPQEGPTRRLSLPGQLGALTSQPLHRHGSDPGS

SMILES	hERG current change (%, negative = inhibition) at 10uM [%]
Nc1n[nH]c(N)c1N=Nc1ccc2c(c1)OCO2	9.43
CCC(=O)Nc1nnc(S(=O)(=O)N2CCCc3ccccc32)s1	2.92
COc1ccc2sc(NC(=O)CC(C)C)nc2c1	-21
Cn1nc(C(=O)N2CCC(C(N)=O)CC2)c2c1-c1ccccc1SC2	-14.3
CNC(=S)N(Cc1ccc(OC)cc1)Cc1cc2cc(C)ccc2[nH]c1=O	18
COc1ccccc1N1CCN(C(c2ccccn2)c2nnnn2C2CCCCC2)CC1 (stereo not drawn)	-8.34
CC(N)C(=O)NC(C(=O)N1CCCC1C(=O)NC(c1ccccc1)c1ccccc1)C(C)C.O=C(O)C(F)(F)F (stereo not drawn)	-3.44
CCCCn1cnc(C(=O)OCC)c1N	-10.3
CCOC(=O)C(=CNc1ccc(-c2ccco2)c(Cl)c1)C(=O)OCC	-13.9
CCOc1ccc(-c2[nH]ncc2-c2csc(C)n2)c(O)c1	-2.1
CCOCc1nnc(NC(=O)c2cc(C(=O)OC)cc([N+](=O)[O-])c2)s1	21.3
CCN(CC)CCN(Cc1cc2cc3c(cc2[nH]c1=O)OCO3)C(=S)NCCCN(C)C	10.2
CC[C@]1(O)C[C@@H]2CN(CCc3c([nH]c4ccccc34)[C@@](C(=O)OC)(c3cc4c(cc3OC)N(C)[C@H]3[C@@](O)(C(=O)OC)[C@H](OC(C)=O)[C@]5(CC)C=CCN6CC[C@]43[C@@H]65)C2)C1.O=S(=O)(O)O	7.12
Cc1cc(NC(=O)CN2C(=O)NC(c3ccccc3)(c3ccc(C)c(C)c3)C2=O)no1 (stereo not drawn)	-48.5
CN(CC12CC3CC(CC(C3)C1)C2)C(=O)c1ccco1	-2.91
CCN1C(=O)/C(=C/N2CCc3ccccc32)SC1=S	21.7
CCn1nnnc1NC(=O)c1cc(OC)c(OC)c(OC)c1	1.4
CCC(=O)N1CCN(c2nnc(-c3ccccc3)c3ccccc23)CC1	-13.5
CN(C(=O)COc1ccc(Br)cc1Cl)C1CCCCC1	-0.252
CC(=O)Nc1coc2ccc(Br)cc12	-8.07
CCCOc1ccc(C(=O)NCc2cccnc2)cc1	-1.45
O=C(NNS(=O)(=O)c1ccc(C(F)(F)F)cc1)c1cnn(-c2ccccc2)c1C(F)(F)F	11.5

SMILES	hERG current change (%, negative = inhibition) at 10uM [%]
COc1cccc2c1c(NC(=O)Nc1ccc(F)cc1F)nn2C	15.3
CCOC(=O)N1CCC(N2C(=O)c3ccccc3C2=O)CC1	-14.6
Cc1ccc(-c2nc(N)sc2CC(=O)OCC(=O)NC2CCCC(C)C2C)cc1 (stereo not drawn)	-6.2
COC(=O)Cn1cc(/C=N/NC(=O)c2ccc(C#N)cc2F)c2ccccc21	-12.1
CN(CC(=O)Nc1ccc(F)cc1)C(=O)c1ccncc1	8.83
CC1CN(Cc2nc3c(c(=O)n(C)c(=O)n3C)n2CC(=O)c2ccccc2)CC(C)O1 (stereo not drawn)	6.25
CCOC(=O)c1c(Cl)c(C)nn1-c1nc(OC)cc(OC)n1	2.65
S=C1N(c2ccccc2)C(c2ccc(Cl)cc2)N2CCCN12 (stereo not drawn)	-6.19
CCN(CC)CCN(C)C1CCC(c2ccccc2)CC1 (stereo not drawn)	-4.92
C=CCSc1nnc(-c2ccccc2NC(=O)CC)c(=O)[nH]1	1.91
COc1cccc(NS(=O)(=O)Cc2ccccc2)c1	10.4
CNP(=S)(NC)OCCOc1ccc(OC)cc1	4.07
Cc1ccccc1OCC(=O)O/N=C(\N)Cc1cccs1	5.34
COc1ccc(CC(NC(C)=O)C(=O)NC2CCN(S(=O)(=O)c3ccccc3)CC2)cc1OC (stereo not drawn)	8.73
Cc1ccc(NC(=O)N2CCCCC2)cc1NC(=O)N1CCCCC1	16.5
O=C(c1cccc(Cl)c1)C1CCCN(Cc2ccon2)C1 (stereo not drawn)	-26.3
O=C(NCCCc1nc2ccccc2[nH]1)c1ccc(F)cc1	-8.92
CCc1ccc(OCC(=O)N2CCc3ccccc32)cc1	11.4
Cc1ccc(-c2nn(-c3ccccc3)cc2NC(=O)c2ccccc2)cc1	8.71
Oc1ccc(-c2csc(Nc3ncccn3)n2)c(O)c1	26.1
Cc1cc(C)cc(NC(=O)N2CCC(C(=O)c3ccc(F)cc3)CC2)c1	-77.7
O=C(N/N=C\c1ccc([N+](=O)[O-])s1)C1COc2ccccc2O1 (stereo not drawn)	-28

SMILES	hERG current change (%, negative = inhibition) at 10uM [%]
CC(=O)c1ccccc1NC(=O)COC(=O)CN1C(=O)C2CCCCC2C1=O (stereo not drawn)	2.92
O=C(/C=C/c1ccccc1[N+](=O)[O-])NCc1ccccc1Cl	22.7
CC(=O)Nc1ccc(CN2CCCN(C)CC2)cc1	12.3
COc1cccc(-n2c(Cc3cc(=O)[nH]c(=O)[nH]3)nnc2SCC(=O)N2CCCC2)c1	0.535
COC(=O)CNC(=O)c1nn(-c2cccc(OC)c2)c(=O)c2ccccc12	-5.31
Nc1ccc(NS(=O)(=O)c2ccccc2)cc1	6.77
COc1cccc(CN2CC(C(=O)NCc3ccc(C)c(F)c3)CCC2=O)c1 (stereo not drawn)	-40.8
C=CCn1c(=O)c2c(C)c(C)sc2n2c(Nc3ccccc3)nnc12	11.6
Cc1ccc(S(=O)(=O)N2CCCC2C(=O)OCc2nc3sc(C)c(C)c3c(=O)[nH]2)cc1 (stereo not drawn)	21.4
CCCOc1ccc(/C(O)=C2/C(=O)C(=O)N(CCCn3ccnc3)C2c2ccco2)cc1 (stereo not drawn)	13.9
CCOc1cc(C(=O)Nc2ccc(F)cc2)cc(Br)c1OC	18.9
O=C(Nc1ccc(F)c(F)c1)C1CCCN(S(=O)(=O)c2cccc3nonc23)C1 (stereo not drawn)	20.8
O=c1[nH]c(=O)n(Cc2ccc(F)cc2)c(O)c1C=NCc1cccnc1	-8.86
O=C(Cn1ccnc1)c1ccc(Cl)cc1	4.52
Cc1ccc(C(=O)O/N=C2\CCS(=O)(=O)c3sccc32)cc1	16.6
COc1ccc(CNC(=O)C2(CC3CC(c4ccccc4)=NO3)CCN(C(=O)C3(C)CC3)CC2)cc1 (stereo not drawn)	-67
Cc1nn(CC(=O)NCCc2ccccc2)c(=O)c2cccn12	10.7
C=CCNC(=S)N/N=C/c1ccc(C(F)(F)F)cc1	9.58
O=C(NCCCN1CCCC1=O)c1cccc(Oc2ccccc2)c1	10.5
O=C(NCc1nnnn1-c1ccc(F)c(F)c1)C(=O)c1c[nH]c2ccccc12	6.24
CCCc1cc(=O)oc2c(C)c(OCC(=O)NCCCN3CCOCC3)ccc12	-20.2
O=C(Nc1cccc(-c2cn3c(n2)SCC3)c1)c1ccc2c(c1)OCO2	-3.9

SMILES	hERG current change (%, negative = inhibition) at 10uM [%]
Cc1ccc(NC(=O)Cc2cccs2)cc1Cl	9.61
N=C1C(c2ccccc2)=C(O)CN1c1ccccc1N1CCOCC1	-14.6
COc1ccc(C(=O)C2CCCN(C(=O)c3cccc(Cn4cccn4)c3)C2)cc1F (stereo not drawn)	-14.5
Cc1ccc(C(NC(=O)/C=C\c2ccc3c(c2)OCO3)C(=O)Nc2ccc3c(c2)OCO3)cc1 (stereo not drawn)	-0.228
O=C(C1CCN(S(=O)(=O)c2cccc3nonc23)CC1)N1CCCCC1	4.65
Cc1nn(C)cc1-c1n[nH]c(=S)n1-c1ccc(Cl)cc1	29.1
CN(C)S(=O)(=O)c1cccc(NC(=O)COC(=O)/C=C/c2cccs2)c1	-25
CC1(C)CC(=O)C([N+](=O)[O-])=C(NCCCC(=O)O)C1.O	15
COc1ccccc1NC(=O)C1CCCN(c2cnccn2)C1 (stereo not drawn)	7.23
CCOC(=O)C1=C(CSc2nc3c(cc2C#N)CCC3)OC(N)=C(C#N)C1c1ccccc1.CN(C)C=O (stereo not drawn)	11.2
Cc1c(C(=O)O)cnc2cc(-c3ccc(Cl)cc3)nn12	20.4
CCOc1ccccc1C(=O)NC1CC2CCCC(C1)N2Cc1ccccc1 (stereo not drawn)	-54.5
CCOc1ccc(CN(C)C(C)C(=O)Nc2ccc([N+](=O)[O-])cc2Cl)cc1OC (stereo not drawn)	-42.3
Cc1cccc(C)c1NC(=O)Cn1nc(-c2ccccc2)nc1-c1ccccc1	12.6
CCOc1cc(/C=C(\C#N)c2[nH]nc(N)c2C#N)ccc1O	-8.98
CCOc1ccccc1N(CC(=O)Nc1cccnc1)S(=O)(=O)c1ccc(C)cc1	-13.4
COc1cccc2sc(N3CCN(c4nc5ccccc5s4)CC3)nc12	10.9
COc1ccc2cc(N=Cc3nc(-c4ccc(C)cc4)oc3O)cnc2c1	1.84
O=C(O)CCc1nc(-c2ccc(Cl)cc2)no1	12.1
COc1ccc(-c2nn(-c3ccccc3)cc2/C=C\C(=O)N2CCOCC2)cc1[N+](=O)[O-]	-34
Cc1cc(Cl)c(S(=O)(=O)N2CCN(c3ccccn3)CC2)cc1OCC(=O)NC1CCCCC1	-56.9
